# Laboratory results reported in publication PMC6919601, “Identification of Plasmodium dipeptidyl aminopeptidase allosteric inhibitors by high throughput screening” (PLoS ONE, 2019).
# Among all 110,000 compounds or so, about 230 (0.21%) showed an effect of 50% or more. Some of the results follow.
# Target: DPAP1 (Plasmodium falciparum, UniProt Q8IIJ9)
# Assay: primary screen, percent inhibition; read by cleavage of a fluorogenic dipeptide substrate; higher = more effect of the substance
# Parameters: species or system P. falciparum D10 trophozoite lysates; single well
# 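Further: 30 min substrate incubation versus DMSO and 10 µM JCP410 controls.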
# Sequence of DPAP1 (Q8IIJ9 whole entry, looked up): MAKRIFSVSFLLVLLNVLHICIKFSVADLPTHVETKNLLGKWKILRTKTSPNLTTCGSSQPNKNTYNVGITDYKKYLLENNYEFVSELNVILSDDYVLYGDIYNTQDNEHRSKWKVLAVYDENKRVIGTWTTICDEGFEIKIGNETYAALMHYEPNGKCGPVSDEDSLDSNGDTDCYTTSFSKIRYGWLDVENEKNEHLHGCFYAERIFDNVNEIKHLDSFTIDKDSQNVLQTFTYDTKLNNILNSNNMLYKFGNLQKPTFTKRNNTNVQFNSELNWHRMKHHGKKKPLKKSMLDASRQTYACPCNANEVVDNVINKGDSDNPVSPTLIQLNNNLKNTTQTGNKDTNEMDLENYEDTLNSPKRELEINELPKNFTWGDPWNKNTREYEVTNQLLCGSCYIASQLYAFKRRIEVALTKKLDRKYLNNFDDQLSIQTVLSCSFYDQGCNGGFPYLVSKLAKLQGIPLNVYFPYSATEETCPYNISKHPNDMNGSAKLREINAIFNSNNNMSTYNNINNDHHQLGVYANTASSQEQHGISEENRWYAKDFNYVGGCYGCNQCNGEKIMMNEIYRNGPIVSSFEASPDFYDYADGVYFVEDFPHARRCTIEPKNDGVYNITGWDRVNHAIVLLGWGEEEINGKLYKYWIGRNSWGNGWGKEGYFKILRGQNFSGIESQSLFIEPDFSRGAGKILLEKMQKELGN
row,SMILES,% Inhibition @ 10 uM
1,COc1ccccc1C(=O)Nc1cccc(NC(=O)c2ccccc2OC)n1,-0.942%
2,CN(C)c1ccc(CN2CCC(O)CC2)cc1,0.847%
3,CN(C)c1ccc(C2C(C(=O)c3ccc(F)cc3)=C(O)C(=O)N2Cc2cccnc2)cc1 (stereo not shown),1.29%
4,CCOc1ccc2ncc(C(=O)c3ccccc3)c(S(=O)(=O)c3ccccc3)c2c1,0.0695%
5,O=C(Nc1ccccc1C(=O)Nc1ccccc1)c1ccc(F)cc1,-5.15%
6,O=C1c2ccccc2C2=Nc3ccccc3SC(c3ccc(Cl)cc3)C12 (stereo not shown),2.22%
7,CCCCCCNC(=O)c1cccc2c1C(=O)N(C1CCCCC1)C2,4.01%
8,Cc1nc(-c2ccccc2)nc2nc(-c3ccccc3)cc(O)c12,-5.36%
9,CCOC(=O)c1c(C)[nH]c(C)c1S(=O)(=O)NCC(=O)N1CC=C(c2ccccc2)CC1,2.24%
10,CCOC(=O)N1CCN(CC(O)COc2ccc3c(c2)c(C(C)=O)c(C)n3-c2ccc(C)cc2)CC1 (stereo not shown),-0.764%
11,O=C(Cn1c(-c2ccccn2)nc2ccccc21)NCCc1ccccc1,2.27%
12,CCCn1c(NCc2cc(OC)c(O)c(OC)c2)nc2ccccc21,-3.52%
13,Cc1cc(-c2ccc(S(=O)(=O)N3CCC(Cc4ccccc4)CC3)s2)on1,3.41%
14,Cc1ccc(CCNC(=O)CS(=O)Cc2nc(-c3ccccc3F)oc2C)cc1 (stereo not shown),-8.65%
15,c1ccc(Nc2cc(-c3ccccc3)on2)cc1,-9.37%
16,O=C(COc1ccccc1Cl)N(Cc1ccco1)Cc1ccccc1Cl,-5.91%
17,Cc1ccc(CSc2nc3ccc(C(=O)NCCN4CCOCC4)cc3n2C)cc1,-1.97%
18,O=C1Nc2ccccc2SCC1CC(=O)N1CCN(Cc2ccccc2)CC1 (stereo not shown),-6.05%
19,Cc1ccc(N2CCN(C(=O)c3ccccc3C(=O)O)CC2)cc1,5.07%
20,COc1ccc2c(c1OC)C(=O)N(c1nc(-c3ccc(C)cc3)cs1)C2=O,2.26%
21,Cc1ccc(Sc2cc(C(=O)NCCCN3CCOCC3)c3ccccc3n2)cc1,-10.3%
22,O/N=C1/CCCSc2ccccc21,1.27%
23,O=C(Nc1ccc2c(c1)OCCO2)C1c2ccccc2Oc2ccccc21,-0.988%
24,CC1CCN(C(=O)c2cc3c(-c4ccc(Cl)cc4)nn(C)c3s2)CC1,2.14%
25,CCOc1cccc(C(=O)N(Cc2cc(OC)c(OC)c(OC)c2)C2CCS(=O)(=O)C2)c1 (stereo not shown),0.0367%

row,SMILES,% Inhibition @ 10 uM
1,O=C1CCC(=O)N1c1cccc2ccccc12,5.04%
2,CCCC(=O)N1CCN(c2ccc(NC(=O)CSc3ccc(Cl)cc3)cc2)CC1,-0.519%
3,CCN(/C=N/c1c(C#N)sc2nc3ccccc3n12)CC,0.687%
4,Cc1cc(C)cc(CSC[C@H](NC(=O)c2ccccc2)C(=O)NCC#N)c1,-3.49%
5,CN(C)CCCN(CCCN(C)C)Cc1cc([N+](=O)[O-])ccc1O,2.1%
6,CCOc1ccc2nc(NC(=O)COc3ccc(C)cc3)sc2c1,-0.95%
7,Nc1c(C(=O)Nc2cc(Cl)cc(Cl)c2)sc2nc(-c3ccncc3)ccc12,17.8%
8,CCSc1nc2c(c(=O)[nH]c(=O)n2C)n1Cc1ccc(Cl)cc1,-2.89%
9,COc1ccc(COC(=O)N[C@@H](CC(C)C)C(=O)NCC#N)cc1,-8.26%
10,CNS(=O)(=O)c1ccc2nc(NC(=O)c3ccncc3)sc2c1,-1.05%
11,CCOC(=O)c1[nH]c(C)c(C(=O)NCCN2CCOCC2)c1C,-3.44%
12,NC(=O)c1ccccc1NC(=O)c1cccnc1,-3.71%
13,OCCN(CCO)C1CCC(c2ccccc2)CC1 (stereo not shown),3.19%
14,Cc1cc(-c2ccc(C)c(S(=O)(=O)N3CCC(N(C)C(C)C)CC3)c2)on1,4.87%
15,COC(=O)Nc1ccc(S(=O)(=O)N2CCOCC2)cc1,-6.68%
16,COc1cccc(C(=O)N2C(C(=O)O)CSC2c2ccccc2Cl)c1 (stereo not shown),-4.39%
17,N#CCc1ccc(NC(=O)c2ccccn2)cc1,-1.52%
18,COC(=O)C1=NNC(C(=O)c2ccco2)C1c1ccccc1 (stereo not shown),0.0289%
19,Cc1cccc(N2C(=O)CC(NC3CCCC3)C2=O)c1 (stereo not shown),1.58%
20,C#CCOC(=O)CSc1nc2ccccc2s1,-10.1%
21,CCCNc1nc2c(c(=O)n(C)c(=O)n2C)n1C(C)C,-3.27%
22,Cc1ccc(C2C(=O)N(C3CCCCC3)CC(=O)N2CCc2ccccc2)cc1 (stereo not shown),-3.94%
23,Cc1ccccc1S(=O)Cc1ccc(C(=O)NCCc2cccs2)o1 (stereo not shown),9.97%
24,O=C(Cn1ncc2c3ccccc3nc-2c1O)N1CCN(Cc2ccccc2)CC1,5.05%
25,COc1ccccc1N1CCN(C(=O)c2ccccc2Br)CC1,-3.77%

row,SMILES,% Inhibition @ 10 uM
1,CCC(Oc1ccccc1)C(=O)Nc1ccncc1 (stereo not shown),0.24%
2,C#CCn1c(CCCNC(=O)c2ccco2)nc2ccccc21,-1.22%
3,Cn1c(C(O)(c2ccccc2)c2ccccc2)nc2ccccc21,6.49%
4,CCNC(=O)c1ccccc1NC(=O)c1ccc(OC)c(S(=O)(=O)N2CCCC2)c1,0.727%
5,O=C(Nc1nc2nc(-c3ccccc3)cc(O)n2n1)c1ccccc1,-4.91%
6,CCN(CC)CCCNc1ncnc2c1cnn2-c1ccc(C)cc1,-0.0781%
7,CCOC(=O)c1c(NC(=O)N2CCC(CN3CCOCC3)CC2)sc2c1CCCC2,4.67%
8,O=C(NC1CCCCC1)c1ccccc1NC(=O)C(F)(F)F,-5.34%
9,CC(NC(=O)c1nn(C)c(=O)c2ccccc12)c1ccccc1 (stereo not shown),2.31%
10,CCOC(=O)C1=C(C)N=c2s/c(=C\c3cc(OC)ccc3OC)c(=O)n2C1c1ccc(N(C)C)cc1 (stereo not shown),4.52%
11,CCOC(=O)c1c(NC(=O)Cc2coc3cc(C)cc(C)c23)sc(C)c1C,1%
12,O=c1oc2ccc(Cl)cc2n1S(=O)(=O)c1ccccc1,-4.43%
13,CCOC(=O)N1CCN(Cc2cc(=O)oc3ccc(OCC)cc23)CC1,1.67%
14,O=[N+]([O-])c1cccnc1N1CCOCC1,-4.4%
15,CCOC(=O)N1CCN(S(=O)(=O)N2CCCC(C(=O)NCCOC)C2)CC1 (stereo not shown),-3.12%
16,COc1ccc(C2C(C#N)=C(N)N(c3ccc(Cl)cc3)C3=C2C(=O)CC(C)(C)C3)cc1 (stereo not shown),-2.21%
17,O=C(O)C1C2CC3CC(C2)CC1(n1ncc(Cl)c(Cl)c1=O)C3 (stereo not shown),26.7%
18,CSc1ccccc1OC1CCN(Cc2ccccc2)CC1,-9.79%
19,O=C(Cn1cc(S(=O)(=O)N2CCCC2)c(S(=O)(=O)N2CCCC2)c1)N1CCCCCC1,-5.48%
20,CCCC1=Nc2ncnn2C(c2cccc(OC)c2OC)/C1=C(/O)OCC (stereo not shown),3.32%
21,CC(=O)N1N=C2C3CCN(CC3)C2C1c1ccc(Cl)cc1Cl (stereo not shown),-2.45%
22,O=C(NCCc1ccc(Cl)cc1)c1ccc2nc(N3CCOCC3)sc2c1,1.03%
23,CCOC(=O)c1cc(C)n(-c2ccc(C(=O)NC3CCCCCC3)cc2)c1C,-0.35%
24,COc1cc(CO)ccc1OCc1ccc(Cl)nc1,5.13%
25,Cn1nnnc1SCc1cccc(CSc2nnnn2C)n1,2.8%

row,SMILES,% Inhibition @ 10 uM
1,O=S(=O)(c1cc(C(F)(F)F)ccc1Cl)N1CCCCC1,-1.71%
2,CC(C)NC(=O)c1cc(-c2ccc(O)cc2)on1,3.27%
3,COc1cc(S(=O)(=O)NC2CC(C)(C)NC(C)(C)C2)ccc1F,-6.94%
4,C=CCc1cccc2cc(C(N)=O)c(=O)oc12,-3.79%
5,CCCCN(C)C(=O)Cc1c(C(=O)O)[nH]c2ccccc12,-2.01%
6,CCCCCCC(=O)c1c(C)[nH]c(C(=O)OCC)c1C,17.5%
7,c1ccc(CN(Cc2ccccc2)c2ncnc3[nH]cnc23)cc1,5.12%
8,CCOC1=C(C)OC(N)=C(C#N)C1c1ccc(OC)cc1 (stereo not shown),0.968%
9,Cc1cc([N+](=O)[O-])ccc1NC(=O)c1ccc(C(C)(C)C)cc1,-4.08%
10,CC(CNC(=O)c1cc2oc3ccccc3c2n1C)c1ccccc1 (stereo not shown),-2.17%
11,CC1CC(C)CN(S(=O)(=O)c2ccc(F)c(C(=O)NCCc3ccccc3Cl)c2)C1 (stereo not shown),3.04%
12,CCc1nnc(NC(=O)Cn2ncc3c(=O)oc4ccc(C)cc4c32)s1,-0.0115%
13,CC(C)(C)N1C(=O)c2ccc(C(=O)c3ccc(C(=O)O)cc3)cc2C1=O,3.44%
14,O=S(=O)(NCc1ccc2c(c1)OCO2)c1cccs1,2.65%
15,Cc1ccsc1C1C(C#N)=C(N)Oc2[nH]nc(C(C)(C)C)c21 (stereo not shown),-4.03%
16,O=C(NC1CCN(Cc2ccccc2)CC1)c1cccs1,-1.5%
17,CC1=C(C(=O)OCCCc2ccccc2)C(c2cccs2)NC(=O)N1C (stereo not shown),5.55%
18,COc1ccc(S(=O)(=O)NCC2CCC(C(=O)O)CC2)cc1 (stereo not shown),-0.256%
19,Cc1ccc(-c2csc(/C(C#N)=C/c3ccc([N+](=O)[O-])cc3)n2)c(C)c1,0.247%
20,O=C(Nc1cccc([N+](=O)[O-])c1)[C@@H]1C2C=CC(C2)[C@@H]1C(=O)O (stereo partly shown),-0.999%
21,Cc1ccc(Nc2nc(-c3ccc(S(=O)(=O)N4CCCC4)cc3)cs2)cc1C,-0.771%
22,COc1ccc(NC(=O)CN(C2CCCCC2)S(C)(=O)=O)cc1Cl,1.17%
23,COCCCNC(=O)c1cc(-c2ccc(Cl)s2)nc2ccccc12,4.32%
24,CC(C)C[C@H](NC(=O)OCc1ccccc1C(F)(F)F)C(=O)NCC#N,-4.72%
25,O=C(O)C/N=C1\CC(c2ccccc2)CC(O)=C1C(=O)CCCN1C(=O)c2ccccc2C1=O (stereo not shown),-2.19%
